Measurements as given in PubChem BioAssay AID1347073 (National Center for Advancing Translational Sciences (NCATS), 2019).
Out of some 45,000 compounds screened, about 200 (0.44%) were called active. Inconclusive results (about 7%) are left out. Calls follow the shape of the dose curve; as a rule, active = well fitted activation curve with a large enough effect; inconclusive = small, poorly fitted or top-dose-only effect; inactive = no such curve, though single readings can be large or run the other way. The list shows a part of the results.

Assay: qHTS of TDP-43 Inhibitors: NCGC Sytravon Library Screen; also: 0% is about no effect; nearly all actives have a fitted effect of over 55% in size
Conditions: yeast TDP-43 toxicity rescue, BacTiter-Glo growth, 24 h; series mostly up to 46.1 µM; growth rescue (activation): at the top concentration
Procedure, shortened: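 TDP-43-expressing yeast, pregrown in raffinose, seeded at OD600 0.02 in galactose medium with compound for 24 hr at 30 deg C. Growth read by BacTiter-Glo luminescence, so rescue of toxicity appears as activation.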

Compound	growth rescue (activation)
CCn1c(CC(=O)Nc2ccccc2F)nnc1SCC(=O)NC1CCCC1	inactive: 11.8%
CC1CCN(C(=O)CCCC(=O)O)CC1	inactive: 22.5%
CCN(CC)c1ccc(C2C(C(=O)OCCOC(C)C)=C(C)NC3=C2C(=O)CCC3)cc1 (stereo unspecified)	inactive: -1.59%
CC(C)(C)SCCNC(=O)CN(c1ccc(F)cc1)S(=O)(=O)c1ccccc1	inactive: 10.1%
CN1C(=O)C2(NCCc3c2[nH]c2ccccc32)c2ccccc21 (stereo unspecified)	inactive: -0.13%
CCOC(=O)Nc1ccc2c(c1)N(C(=O)N(CC)CC)c1ccccc1CC2	inactive: 3.53%
CCCCOCCCNC(=O)c1cccc(OC)c1	inactive: -4.48%
Cc1ccc(Nc2nc3ccccc3c(=O)s2)cc1C	inactive: -1.92%
OCCN1CCN(c2cc(-c3ccc4ccccc4c3)nc3ccnn23)CC1	inactive: 9.25%
CCOCCCNC(=O)c1c(NC(=O)c2nc(SC)ncc2Cl)sc2c1CCCC2	inactive: 8.45%
NS(=O)(=O)c1cccc(NC(=O)COC(=O)CCc2ccccc2)c1	inactive: 12.4%
COc1ccc(NC(=O)C2C3C=CC4(O3)C2C(=O)N(CCN2CCCCC2C)C4C(=O)NC2CCCC(C)C2C)cc1 (stereo unspecified)	inactive: 4.08%
Cn1c(=O)n(C)c2cc(S(=O)(=O)NCc3ccccc3)ccc21	inactive: 4.11%
CC(=O)c1cccc(CN2CCN(CCC(C)C)C(CCO)C2)c1 (stereo unspecified)	inactive: 31.4%
O=C(Nc1nc2c(F)c(F)c(F)cc2s1)c1ccco1	inactive: -12.3%
CCCCNC(=O)C1CCC(=O)N1CCc1ccccc1 (stereo unspecified)	inactive: 10%
CC(=O)N1CCN(C(=O)COc2ccc(Br)cc2)CC1	inactive: -14.2%
CCCCn1c(N)c(N(CC)C(=O)c2cccc(F)c2)c(=O)[nH]c1=O	inactive: -11%
O=C(COC(=O)c1ccccn1)Nc1ccccc1OC(F)F	inactive: 5.47%
S=C(Nc1ccccc1)Nc1ccccc1Br	inactive: 16.3%
CCN(CC)CCCNc1cc(C)nc2cc(-c3cccs3)nn12	inactive: 0.186%

Compound	growth rescue (activation)
O=S(=O)(NCc1ccccc1)NCc1ccccc1F	inactive: 29%
Cc1ccc(OCC(=O)N(C)CC(=O)NCc2ccco2)c(Br)c1	inactive: -4.2%
CCCc1ccc(S(=O)(=O)N2CCN(Cc3ccco3)CC2)cc1	inactive: 6.24%
CCCCCCOc1ccc(C(CC(=O)NC)C(=O)O)cc1 (stereo unspecified)	inactive: 13.7%
COc1ccc(OC)c(NC(=O)CCNC(=O)c2ccco2)c1	inactive: -8.09%
COc1ccc(CCNC(=O)c2sc3cc(C)ccc3c2Cl)cc1	inactive: -26%
COc1ccc(OC)c(NC(=O)c2cc3c(cc2Cl)N2CCCCCC2=NS3(=O)=O)c1	inactive: -9.04%
O=C(CCc1ccccc1)NC1CCS(=O)(=O)C1 (stereo unspecified)	inactive: -4.45%
O=C(CSc1ccc([N+](=O)[O-])cn1)Nc1ccc2c(c1)OCCO2	inactive: 3.49%
Cc1ccc(S(=O)(=O)N2CCCCC2)cc1NC(=O)COc1ccccc1	inactive: 7.8%
Cc1ccc(S(=O)(=O)CCN2CCN(c3ccccc3)CC2)cc1	inactive: 0.53%
CC1CCCN(CCCNC(=O)c2cc3c(Cl)nc4ccccc4c3s2)C1 (stereo unspecified)	inactive: -0.597%
NCCNC[C@@H]1COC2(CCCCCCCCCCC2)O1	inactive: 23.8%
CS(=O)(=O)N1CCN(C(=S)NCc2ccc(Cl)cc2)CC1	inactive: -6.02%
CCc1nc2c(OCc3ccc(C#N)cc3)cccn2c1N(C)C(=O)c1ccco1	inactive: 6.46%
O=S(=O)(Nc1ccc(Br)cc1)c1cccc(NC(=S)NCCN2CCOCC2)c1	inactive: 1.29%
COc1ccc(/C=C/C(=O)Nc2nc(C)c(C(=O)N(C)C)s2)cc1OC	inactive: 2.37%
COc1cc(/C=N/NC(=O)c2cccnc2)ccc1OCC(=O)Nc1ccc(C)cc1	inactive: 10%
CC(C)(C)C(=O)CSc1ncccn1	inactive: -4.51%
CCCS(=O)(=O)NC(=O)C1(C)CCN(C(=O)c2cccc(OC(F)(F)F)c2)C1 (stereo unspecified)	inactive: 5.85%
